Hit rate of the full screen: of about 310,000 compounds, about 18,000 (5.8%) were called active. The inconclusive results got no clear call from the source; some entries with a clear call stand among them for comparison. Calls come from the whole dose curve; as a rule, active = well fitted inhibition curve with a large enough effect; inconclusive = small, poorly fitted or top-dose-only effect, or another doubt; inactive = no such curve, though single readings can be large or run the other way. Potencies of inconclusive entries are left out as doubtful fits.
Assay: Primary qHTS for delayed death inhibitors of the malarial parasite plastid, 48 hour incubation
Settings: P. falciparum luciferase growth in erythrocytes; series mostly up to 28.7 µM
Outline: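 A one-generation exposure of luciferase-tagged malaria parasites in RPMI 1640/Albumax erythrocyte culture, 37 C and 5% CO2. Inhibition is inferred from decreased luminescence after adding detection reagent.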
Potency is the fitted concentration of half-maximal effect; tags give direction and shape of the fitted curve.

| SMILES | Potency |
| --- | --- |
| O=C(NC(=S)Nc1ccc2c(c1)C(=O)c1ccccc1C2=O)c1ccc(F)cc1 | inactive |
| Cc1cccc(NC(=O)CCNC(=O)c2ccccc2Cl)n1 | inactive |
| O=C(/C=C/c1cn(-c2ccccc2)nc1-c1cccc(Cl)c1)N1CCN(c2ccccn2)CC1 | inconclusive [inhibitor, partial curve] |
| CNC(=O)NC(=O)COC(=O)c1cccc(S(=O)(=O)N2CC3(C)CC2CC(C)(C)C3)c1 (stereo not given) | inconclusive [inhibitor, single point] |
| Cn1cccc1C(=O)OCC(=O)c1cc2ccccc2o1 | inactive |
| CCCNC(=O)Cn1nc([N+](=O)[O-])c([N+](=O)[O-])c1C | inconclusive [inhibitor, single point] |
| Cc1ccc(-n2c(N)cc(=O)nc2SCC(=O)NC2CCCCC2)cc1C | inconclusive [inhibitor, single point] |
| CCCN(Cc1nnc(-c2cccs2)o1)C(=O)c1cc(S(=O)(=O)N2CCOCC2)ccc1C | inconclusive [inhibitor, single point] |
| CC1CCc2nc(NC(=O)CN3CCN(c4ccccc4)CC3)sc2C1 (stereo not given) | inactive |
| COc1ccc(Cl)cc1NC(=O)C(C)N(C)Cc1ccc(C(F)(F)F)cc1 (stereo not given) | active: 7.38 µM |
| CCCOc1ccc(C2CC(=O)Nc3cc(OC)c(OC)cc32)cc1 (stereo not given) | inactive |
| Cc1ccc(Nc2ccc(N)cc2S(=O)(=O)O)cc1 | inconclusive [inhibitor, partial curve, poor fit] |
| CCOc1ccc(CCNC(=O)COC(=O)CNS(=O)(=O)c2ccc(NC(C)=O)cc2)cc1OCC | inconclusive [inhibitor, single point] |
| Cn1cccc1-c1cc(C(=O)N/N=C/C=C/c2ccccc2)[nH]n1 | inconclusive [inhibitor, single point] |
| CCOc1ccc(C(=O)C2CCN(C(=O)c3ccccc3C(=O)O)CC2)cc1 | inactive |
| CC(OC(=O)c1ccc(NC(=O)CC#N)cc1)C(=O)Nc1nc(-c2ccccc2)cs1 (stereo not given) | inconclusive [inhibitor, partial curve, poor fit] |
| CCCCN(C)C(=O)c1nc2ccccn2c1CN1CCN(C/C=C/c2ccccc2)CC1 | inconclusive [inhibitor, partial curve, poor fit] |
| Cc1ccc2nc(NC(=O)C3=NN(c4ccccc4)C(=O)CC3)sc2c1 | inactive |
| COc1ccccc1N1CCN(S(=O)(=O)CCNC(=O)c2cccc(F)c2)CC1 | inactive |
| Cc1cccc(C)c1NC(=O)N1CC=C(n2c(=O)[nH]c3ccccc32)CC1 | inconclusive [inhibitor, single point] |
| COc1ccc(Cl)cc1NC(=O)CSc1nnc(Cc2cccn2C)n1-c1ccc(F)cc1 | active: 13.1 µM |
| O=C(O)/C=C/c1coc2ccc(F)cc2c1=O | inactive |
| CN=c1nc(-c2ccccc2)n(-c2ccccc2)s1 | inactive |
| Cn1c(=O)c2c(nc(SCc3cccnc3)n2Cc2ccc(F)cc2)n(C)c1=O | inconclusive [inhibitor, partial curve, poor fit] |

| SMILES | Potency |
| --- | --- |
| Cn1c(N)c(S(=O)(=O)NCc2ccccc2Cl)c(=O)n(C)c1=O | inconclusive [inhibitor, full curve, poor fit] |
| CC1(c2ccccc2)NC(=O)N(Cc2ccc([N+](=O)[O-])cc2)C1=O (stereo not given) | inactive |
| Cc1sc2nc(CSCC(=O)N(CCC#N)c3ccccc3)[nH]c(=O)c2c1C | inconclusive [inhibitor, partial curve] |
| CCN(CCCNC(=O)c1cc2c(-c3cccc(OC)c3)nn(C)c2s1)Cc1ccccc1 | active: 2.33 µM |
| O=C1C=C(c2ccc(OC(F)(F)F)cc2)C[C@@H](c2ccc(F)cc2)C1 | inconclusive [inhibitor, partial curve] |
| COc1cc(CN(C)CCc2ccccc2)ccc1OCc1ccccc1 | inconclusive [inhibitor, single point] |
| COc1ccc(CNC(=O)[C@H](CCSC)NC(=O)N2CCn3c2nc2ccccc23)cc1 | inconclusive [inhibitor, partial curve, poor fit] |
| Cc1cc(NC(=O)C(C)SCC(=O)Nc2ccccc2OC(F)F)no1 (stereo not given) | inconclusive [inhibitor, full curve, poor fit] |
| O=C(c1cccc(C(=O)N2CCN(c3ccccc3)CC2)c1)N1CCN(c2ccccc2)CC1 | active: 13.1 µM |
| O=C(Nc1ccnn1C1CCN(Cc2cccnc2)CC1)c1ccccc1Cl | inactive |
| Cc1cc(C)c2sc(N(CCCN(C)C)C(=O)c3ccc(S(=O)(=O)N(C)Cc4ccccc4)cc3)nc2c1 | inconclusive [inhibitor, partial curve] |
| COC(=O)c1ccc(C2C(C(=O)OCC(C)C)=C(C)N=C3SCCC(=O)N32)cc1 (stereo not given) | inconclusive [inhibitor, partial curve, poor fit] |
| C[n+]1c(-c2ccccc2)cc(-c2ccc(Cl)cc2)cc1-c1ccccc1 | active: 1.65 µM |
| CCCCCCCSc1nnc(N)s1 | inactive |
| CCOc1ccc(CC(C(=O)NN)C(=O)NN)cc1CN(C)C | inconclusive [inhibitor, single point] |
| Cc1ccc(N(C(C)C(=O)Nc2cc(Cl)ccc2Oc2ccccc2)S(C)(=O)=O)cc1 (stereo not given) | active: 4.65 µM |
| CCc1ccc(-c2nc(SCC(=O)N(CC)C3CCS(=O)(=O)C3)n[nH]2)cc1 (stereo not given) | inactive |
| O=Cc1c(NCCc2cccc(F)c2)c2ccccc2[nH]c1=O | inconclusive [inhibitor, single point] |
| Cn1c(=NC(=O)CS(=O)(=O)c2ccccc2)sc2ccccc21 | inactive |
| C=CCN(CCNP(=O)(OCC)OCC)CP(=O)(OCC)OCC | inactive |
| COc1ccc([N+](=O)[O-])cc1NC(=O)c1csc(C)c1 | inconclusive [inhibitor, single point] |
| COc1ccc(C(C)=O)cc1CSc1nnc(Nc2c(C)cccc2C)s1 | inconclusive [inhibitor, partial curve] |
| Cc1cccc(-c2csc(N3CCC(C(N)=O)CC3)n2)c1 | inconclusive [inhibitor, single point] |
| N=C1CCC(=N)c2c1c(O)c1ccccc1c2O | inconclusive [inhibitor, partial curve, poor fit] |

| SMILES | Potency |
| --- | --- |
| O=C(/C(=C/c1cccc(Cl)c1)c1nc2ccccc2[nH]1)c1ccccc1 | inconclusive [inhibitor, partial curve, poor fit] |
| Cc1ccc(C(C(=O)NCc2ccccc2)N(Cc2cccs2)C(=O)c2ccc3c(c2)OCCO3)cc1 (stereo not given) | inconclusive [inhibitor, single point] |
| CC(=O)c1ccc(N2CCN(C(=O)CCCn3c(=O)[nH]c4ccsc4c3=O)CC2)cc1 | inconclusive [inhibitor, single point] |
| O=S(=O)(c1cccc(Br)c1)N1CCN(C(=S)NCC2CCCO2)CC1 (stereo not given) | inconclusive [inhibitor, single point] |
| CCOC(=O)N1CCC(N2C(=O)c3ccccc3C2Nc2ccc(S(=O)(=O)N3CCOCC3)cc2)CC1 (stereo not given) | inconclusive [inhibitor, partial curve, poor fit] |
| COC(=O)c1csc(S(=O)(=O)N2CCCCC2)c1OC | inactive |
| Cc1ccc(S(=O)(=O)NC2c3cccc4cccc(c34)C2Sc2n[nH]c(N)n2)cc1 (stereo not given) | inconclusive [inhibitor, partial curve, poor fit] |
| COc1ccc2c(c1)CCc1cnc(N)nc1-2 | inactive |
| CCOc1ccccc1NC(=O)N1CCC(c2nc3ccccc3[nH]2)CC1 | inactive |
| Nc1nc(Cl)cc(-c2ccccc2)n1 | inactive |
| COc1ccccc1N(CC(=O)NCCC1=CCCCC1)S(=O)(=O)c1ccccc1 | inconclusive [inhibitor, partial curve] |
| Cc1cccc(C)c1N1C(=O)C(Cl)=C(N2CCCC2)C1=O | inconclusive [inhibitor, partial curve, poor fit] |
| COc1ccccc1CCNC(=O)C1CCN(c2nnc(C)c3c(C)n(-c4ccc(C)cc4)nc23)CC1 | inconclusive [inhibitor, partial curve] |
| O=C(N[C@H]1CCC(=O)N([C@H](CSc2ccccc2)Cc2ccccc2)CC1)OCc1ccccc1 | inconclusive [inhibitor, full curve, poor fit] |
| C/C(=N\NC(=O)CN(c1ccccc1)S(C)(=O)=O)c1ccccc1O | active: 11.7 µM |
| C=CCOC(=O)C1=C(C)NC(SCC(=O)Nc2ccccc2)=C(C#N)C1c1ccco1 (stereo not given) | active: 9.28 µM |
| CN(C)CCOCCOc1ccc(Cl)c2ccccc12 | inconclusive [inhibitor, single point] |
| COC(=O)Cn1c(CN(C)Cc2ccccc2)nc2c1c(=O)n(C)c(=O)n2C | inactive |
| c1csc(C2C3=C(Nc4ncnn42)c2ccccc2OC3)c1 (stereo not given) | inconclusive [inhibitor, partial curve, poor fit] |
| Cc1ccc(NC(=O)CN2C(=O)N/C(=C/c3cc(C)n(-c4ccc(C(=O)O)cc4)c3C)C2=O)cc1 | inactive |
| CC(C)C(NC(=O)c1ccccc1F)C(=O)OCC(=O)c1ccc(F)cc1 (stereo not given) | inactive |
| COc1cc(NC(=O)CSc2nc(=O)n(CCCN3CCOCC3)c3c2CCC3)cc(OC)c1 | inconclusive [inhibitor, single point] |
